Assay results from PubChem BioAssay AID1030 (National Center for Advancing Translational Sciences (NCATS), 2008).
About 16,000 (7.3%) of roughly 220,000 compounds were called active. The inconclusive results got no clear call from the source; some entries with a clear call stand among them for comparison. Calls come from the whole dose curve; as a rule, active = well fitted inhibition curve with a large enough effect (not every such curve was filed as active); inconclusive = small, poorly fitted or top-dose-only effect, or another doubt; inactive = no such curve, though single readings can be large or run the other way. No potency is given beside an inconclusive call; the fits are too rough.

target: Aldehyde dehydrogenase 1A1 (Homo sapiens) (UniProt P00352); experiment: qHTS Assay for Inhibitors of Aldehyde Dehydrogenase 1 (ALDH1A1); details: Purified ALDH1A1, NADH fluorescence, propionaldehyde substrate; series mostly up to 75.3 µM
Potency is the fitted concentration of half-maximal effect; tags give direction and shape of the fitted curve.

UniProt P00352, sequence (P00352 whole entry, looked up): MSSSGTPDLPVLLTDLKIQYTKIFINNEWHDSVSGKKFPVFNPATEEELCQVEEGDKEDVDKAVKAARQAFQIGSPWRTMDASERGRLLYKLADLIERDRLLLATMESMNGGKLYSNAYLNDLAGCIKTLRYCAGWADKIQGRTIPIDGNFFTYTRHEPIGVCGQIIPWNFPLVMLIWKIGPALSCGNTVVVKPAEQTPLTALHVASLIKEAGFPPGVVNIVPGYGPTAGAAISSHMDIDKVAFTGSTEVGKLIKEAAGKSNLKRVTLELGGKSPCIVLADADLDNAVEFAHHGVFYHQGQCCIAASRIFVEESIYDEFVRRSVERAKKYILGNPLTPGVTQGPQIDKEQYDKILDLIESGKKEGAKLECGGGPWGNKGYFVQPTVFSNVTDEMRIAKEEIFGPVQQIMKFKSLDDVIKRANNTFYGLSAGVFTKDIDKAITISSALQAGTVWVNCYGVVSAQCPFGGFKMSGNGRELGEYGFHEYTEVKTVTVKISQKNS

Row | Structure (SMILES) | Potency
1 | Cc1ccc(Oc2nc(CN3CCOCC3)nc3sc4c(c23)CCC(C)C4)cc1 (stereo unspecified) | inconclusive [inhibitor, single point]
2 | O=C(Nc1cccc([N+](=O)[O-])c1)c1cnccn1 | inconclusive [inhibitor, single point]
3 | COc1ccc2oc(-c3ccccc3)c(OC)c(=O)c2c1 | inconclusive [inhibitor, single point]
4 | CN(C(=O)c1coc(=O)c2ccccc12)c1ccccc1Cl | inactive
5 | O=C(O)C1CCCN1S(=O)(=O)c1ccc2[nH]c(=O)c(=O)[nH]c2c1 (stereo unspecified) | inactive
6 | Cc1ccc(Cl)cc1N1CCN(S(=O)(=O)c2ccc3c(c2)oc(=O)n3C)CC1 | inactive
7 | O=C(c1c(F)cccc1F)N1CCN(c2ncccn2)CC1 | inconclusive [inhibitor, single point]
8 | CCOc1ccccc1N/C(=C(/C(Cl)=C(Cl)Cl)[N+](=O)[O-])n1cncn1 | active: 20 µM
9 | O=C1CCN(C(=O)Nc2ccccc2)N1 | inconclusive [inhibitor, single point]
10 | COc1ccc(NC(=S)Nc2ccccc2OC)c(OC)c1 | active: 25.1 µM
11 | O=C(c1cnn2ccccc12)N1CCN(C2CCCCC2)CC1 | inconclusive [inhibitor, partial curve]
12 | O=C(NC1CCCCC1)N(CCN1CCCC1)Cc1cc2cc3c(cc2[nH]c1=O)OCCO3 | inconclusive [inhibitor, single point]
13 | Cc1cc2oc(=O)cc(CN3CCC(C)CC3)c2cc1Cl | active: 20 µM
14 | Nc1nnc(SCCCC(=O)c2ccc(Br)cc2)s1 | inactive
15 | CCCCN(CCCC)C(=O)/C=C/c1cccc([N+](=O)[O-])c1 | active: 4.47 µM
16 | COC(=O)c1cc2c(cc1Cl)SC(=NCCCN1CCOCC1)NS2(=O)=O | inconclusive [inhibitor, single point]
17 | CCN(CC(=O)NCc1ccc(F)cc1)Cc1nc2ccccc2c(=O)[nH]1 | inconclusive [inhibitor, single point]
18 | COc1ccc(/C=C/C(=O)NC(=S)NN2CCCCC2c2cccnc2)cc1 (stereo unspecified) | inconclusive [inhibitor, single point]
19 | O=C(O)/C(=C\c1ccccc1Cl)c1ccc(S(=O)(=O)N2CCCCC2)s1 | inconclusive [inhibitor, partial curve]
20 | CN(c1ccc(C(=O)N2CCN(c3ccc(F)cc3)CC2)cc1)S(C)(=O)=O | inactive
21 | Cc1ccccc1-n1c(C)cc(/C=N/NC(=O)c2ccc(CN3CCOCC3)cc2)c1C | inconclusive [inhibitor, single point]
22 | CC(=O)Nc1ccc(/C=N/N2CCCCC2)cc1 | inactive
23 | COC(=O)c1[nH]nc2c1C(=O)N(C1CCCCC1)C2=O | inconclusive [inhibitor, partial curve]
24 | O=C(Nc1ccn(Cc2c(F)c(F)cc(F)c2F)n1)c1ccc(COc2ccc(Cl)cc2Cl)o1 | inconclusive [inhibitor, partial curve]

Row | Structure (SMILES) | Potency
25 | Cc1ccccc1-c1cc2c(nn1)-c1ccccc1C2=O | active: 25.1 µM
26 | CCc1c(C)nc2ncnn2c1N1CCCC(C(=O)NCCc2ccc(OC)cc2)C1 (stereo unspecified) | inconclusive [inhibitor, single point]
27 | COc1ccc(C2C(C(C)=O)=C(O)C(=O)N2c2cccnc2)c(OC)c1 (stereo unspecified) | active: 31.6 µM
28 | COc1cc(/C=N/NC(=O)CC#N)cc(Br)c1O | inconclusive [inhibitor, single point]
29 | Cc1cc(Nc2nc3ccccc3[nH]c2=O)n(-c2ccccc2)n1 | inconclusive [inhibitor, partial curve]
30 | COc1ccc(C(=O)Nc2ccccc2Cc2ccccc2)c(OC)c1 | inconclusive [inhibitor, single point]
31 | N#Cc1nc(-c2ccc(OCc3ccccc3)cc2)oc1NCCCN1CCOCC1 | inconclusive [inhibitor, partial curve]
32 | CCn1c(SCC(=O)c2ccc(O)c(O)c2)nnc1-c1ccccc1 | inactive
33 | O=C(Cc1cccc(Cl)c1)Nc1ccc(Br)cc1 | inconclusive [inhibitor, single point]
34 | Cc1c(Br)cc(C(=O)NCc2ccco2)c(C)c1C | inconclusive [inhibitor, partial curve, poor fit]
35 | CN1C(=O)/C(=C/c2cc(C(C)(C)C)c(O)c(C(C)(C)C)c2)NC1=S | inconclusive [inhibitor, partial curve]
36 | O=C(CNC(=O)c1ccco1)NCC(=O)OCc1ccccc1Br | inconclusive [inhibitor, single point]
37 | COc1ccccc1C1CC(=O)Oc2cc(C)c(Cl)c(C)c21 (stereo unspecified) | inconclusive [inhibitor, partial curve]
38 | CC(C)N(CCNC(=O)C1CCC(=O)N1Cc1ccc(F)cc1)Cc1ccccc1 (stereo unspecified) | inconclusive [inhibitor, single point]
39 | COc1cc(/C=N/NC(=O)CN(CCc2ccccc2)S(=O)(=O)c2ccc(NC(C)=O)cc2)cc(OC)c1OC | inconclusive [inhibitor, partial curve]
40 | COc1ccc(Oc2cc(C)nc(Cl)n2)nn1 | active: 8.91 µM
41 | CCCOc1ccc(-c2nnn(CC(=O)c3c[nH]c4ccccc34)n2)cc1 | inactive
42 | Cc1cc2cc(C)c3nnc(SCC(=O)Nc4ccc(S(=O)(=O)N5CCCCC5C)cc4)n3c2cc1C (stereo unspecified) | inconclusive [inhibitor, single point]
43 | CCCn1c(NC(=O)C2COc3ccccc3O2)nc2ccccc21 (stereo unspecified) | inactive
44 | Cn1c(C(=O)N(Cc2ccccc2)Cc2ccccn2)cc2sccc21 | inconclusive [inhibitor, partial curve]
45 | O=c1oc2ccccc2n1CCCCCn1c(=O)oc2ccccc21 | inconclusive [inhibitor, partial curve]
46 | Cc1c(OCc2nn[nH]n2)ccc2c3c(c(=O)oc12)CCCC3 | inconclusive [inhibitor, partial curve]
47 | CCCNS(=O)(=O)c1ccc(OCC(=O)Nc2ccc3c(c2)OCO3)cc1 | inconclusive [inhibitor, single point]
48 | Cc1c(N=C2NN=C(c3c[nH]c4ccccc34)CS2)c(=O)n(-c2ccccc2)n1C | inconclusive [inhibitor, single point]

Row | Structure (SMILES) | Potency
49 | Cc1cccc(CCNC(=O)CCS(=O)(=O)c2ccc(Br)cc2)c1 | inconclusive [inhibitor, partial curve, poor fit]
50 | Cc1ccc(OCCCN2CCCC2)c(C)c1 | inconclusive [inhibitor, single point]
51 | Cc1cc([N+](=O)[O-])nn1CC(=O)N1CCCc2ccccc21 | inconclusive [inhibitor, single point]
52 | Cc1ccc(CN2CCN(/N=C/c3ccc(C(F)(F)F)cc3)CC2)c(C)c1 | inactive
53 | Cc1ccc(C(c2sc3ncnn3c2O)N2CC(C)CC(C)C2)cc1 (stereo unspecified) | inconclusive [inhibitor, single point]
54 | CCOc1ccc(N(CC(=O)NCc2ccco2)S(C)(=O)=O)cc1 | inactive
55 | Cc1ccc(OCCn2c(CCCO)nc3ccccc32)cc1 | inconclusive [inhibitor, single point]
56 | COc1ccc(NC(=S)N(Cc2ccc(Cl)cc2)Cc2ccc(C(=O)O)cc2)cc1Cl | active: 20 µM
57 | CN(Cc1ccccc1)C(=O)COc1ccc(-c2nnco2)cc1 | inconclusive [inhibitor, partial curve]
58 | O=C(c1ccc(Cn2c(=O)[nH]c3ccccc3c2=O)cc1)N1CCN(c2ccc(Cl)cc2)CC1 | inconclusive [inhibitor, single point]
59 | Cc1ccc(-c2c[n+](CC(=O)N3c4ccccc4Sc4ccccc43)c3n2CCC3)cc1 | inconclusive [inhibitor, single point]
60 | CC(C)c1ccc(S(=O)(=O)c2ccc(NN)cc2)cc1 | inconclusive [inhibitor, single point]
61 | CC(C)CC1(C)NC(=O)N(CC(=O)NC(=O)Nc2ccc3c(c2)OCCO3)C1=O (stereo unspecified) | inconclusive [inhibitor, single point]
62 | Cc1cc(N)n(-c2ccc(S(=O)(=O)c3ccc(C(C)C)cc3)cc2)n1 | active: 35.5 µM
63 | N#Cc1cnc(Nc2nc3ccccc3o2)nc1-c1ccccc1 | inconclusive [inhibitor, partial curve]
64 | O=C(NCc1ccco1)c1ccc2c(=O)n(CCC3=CCCCC3)c(=O)[nH]c2c1 | inconclusive [inhibitor, single point]
65 | O=C(O)c1ccc(N=Cc2nc(-c3ccco3)oc2O)cc1 | inactive
66 | CCN(CC)S(=O)(=O)c1ccc(OC)c(-n2cnnn2)c1 | active: 7.94 µM
67 | CC(=O)Nc1ccc(S(=O)(=O)Oc2cccc(/C=N/N=C3/NC(=O)C(CC(=O)O)S3)c2)cc1 (stereo unspecified) | active: 7.51 µM
68 | CC(C)C(C(=O)O)N1CCS(=O)(=O)CC1 (stereo unspecified) | inactive
69 | COCCn1c(SCc2c(F)cccc2Cl)nc2c1c(=O)[nH]c(=O)n2C | active: 25.1 µM
70 | CC1CCCN(C(=O)CSc2nnc3n(C4CCCC4)c(=O)c4ccccc4n23)C1 (stereo unspecified) | active: 7.94 µM
71 | COc1ccc(C(=O)C2CCCN(Cc3sc(N4CCCC4)nc3Cl)C2)c(OC)c1 (stereo unspecified) | inconclusive [inhibitor, single point]
